Assay results from PubChem BioAssay AID881 (National Center for Advancing Translational Sciences (NCATS), 2007).
Several values for one entry are separate records, joined by “and”; a condition that tells them apart may be missing. Equal entries are not always repeated. Hit rate of the full screen: of about 110,000 compounds, about 610 (0.55%) were called active. The inconclusive results got no clear call from the source; some entries with a clear call stand among them for comparison. Calls follow the shape of the dose curve; as a rule, active = well fitted inhibition curve with a large enough effect; inconclusive = small, poorly fitted or top-dose-only effect; inactive = no such curve, though single readings can be large or run the other way. Where the call is inconclusive, the potency comes from a doubtful curve fit.

Each compound was assayed against Polyunsaturated fatty acid lipoxygenase ALOX15B (Homo sapiens) (UniProt O15296) (assay: qHTS Assay for Inhibitors of 15-hLO-2 (15-human lipoxygenase 2)). Conditions: purified 15hLO-2, xylenol orange hydroperoxide absorbance; activity change, negative = inhibition: at 57.1 µM (top of the series) unless noted.
How it was run: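 Read-out: hydroperoxide product oxidises ferrous iron, measured as xylenol orange complex via the 573-to-405 nm absorbance ratio after 30 min. Reaction: 50 nM enzyme, 15 min compound preincubation, 45 uM arachidonic acid, 90 min RT, Hepes pH 7.5 with Triton X-100.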
% is scaled to controls: 0 for no effect and ±100 for the full control effect; potency is read from the fitted curve at half-maximal effect; tags tell the direction and shape of the fitted curve.
Also: nearly all actives have a fitted effect of over 60% in size.

Chain of UniProt O15296 (O15296 whole entry, looked up): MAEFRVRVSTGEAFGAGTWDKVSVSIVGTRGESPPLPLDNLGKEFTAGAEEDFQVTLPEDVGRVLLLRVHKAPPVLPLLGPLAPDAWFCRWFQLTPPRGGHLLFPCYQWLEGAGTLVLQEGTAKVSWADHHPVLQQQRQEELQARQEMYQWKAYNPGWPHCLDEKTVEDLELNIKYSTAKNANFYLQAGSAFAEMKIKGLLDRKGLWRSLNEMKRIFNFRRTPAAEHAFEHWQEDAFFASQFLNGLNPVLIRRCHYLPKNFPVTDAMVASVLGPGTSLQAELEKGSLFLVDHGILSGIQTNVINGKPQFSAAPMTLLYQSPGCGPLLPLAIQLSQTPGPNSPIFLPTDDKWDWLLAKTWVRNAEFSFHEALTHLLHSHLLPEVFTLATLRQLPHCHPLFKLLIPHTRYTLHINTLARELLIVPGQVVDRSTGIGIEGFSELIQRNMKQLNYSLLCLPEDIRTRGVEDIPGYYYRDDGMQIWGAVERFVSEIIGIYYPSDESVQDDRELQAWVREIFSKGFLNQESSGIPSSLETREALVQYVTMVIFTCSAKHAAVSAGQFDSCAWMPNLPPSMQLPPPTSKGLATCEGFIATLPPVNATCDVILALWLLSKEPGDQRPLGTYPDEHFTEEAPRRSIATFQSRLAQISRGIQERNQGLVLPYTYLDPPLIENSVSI

**Q.** With `Cc1c2cc(O)c(=O)cc-2oc2cc(O)c(O)cc12` as the compound, how does the Potency read?
**A.** inconclusive: 12.6 µM [inhibitor, partial curve]

**Q.** With `CCCCc1c(O)n(-c2ccccc2)[nH]c1=O` as the compound, how does the Potency read?
**A.** inconclusive: 14.1 µM [inhibitor, partial curve]

**Q.** With `N#Cc1cc2c(nc1SCc1cccnc1)CCCC2` as the compound, how does the Potency read?
**A.** inconclusive: 10 µM [inhibitor, partial curve]

**Q.** For `CCOc1ccc(-n2c(N)c(C(=O)NCc3ccco3)sc2=S)cc1`, which Potency is on record?
**A.** inconclusive: 0.158 µM [inhibitor, full curve]

**Q.** Which “activity change, negative = inhibition” value does the source give for `O=c1n(Cc2ccccc2Cl)c2sc3c(c2c2ncnn12)CCCC3` here?
**A.** inactive: -5.19%

**Q.** With `CCCc1nnc(NC(=O)Cn2c(=O)oc3cc(Br)ccc32)s1` as the compound, how does the “activity change, negative = inhibition” value read?
**A.** inactive: 2.9%

**Q.** With `CCOC(=O)c1c(-c2ccc(C)o2)csc1NC(=O)CSc1nnnn1-c1ccccc1` as the compound, how does the Potency read?
**A.** inconclusive: 12.6 µM [inhibitor, partial curve]

**Q.** Which Potency does the source give for `CC(=O)/C(=N/Nc1ccccc1C)N1CCOCC1` here?
**A.** inconclusive: 0.631 µM [inhibitor, full curve]

**Q.** With `CCOC(=O)c1sc(NC(=O)CNC(=O)Cn2cnc3sc(C)c(C)c3c2=O)nc1C` as the compound, how does the “activity change, negative = inhibition” value read?
**A.** inactive: -9.64%

**Q.** For `CC1CCN(S(=O)(=O)c2ccc(NC(=O)Cc3cccs3)cc2)CC1`, which Potency is on record?
**A.** inconclusive: 20 µM [inhibitor, single point]

**Q.** How did the Potency turn out when `[O-][n+]1c2c(c3c4non(O)c4ccc31)CCCC2` was run?
**A.** inconclusive: 15.8 µM [inhibitor, partial curve]

**Q.** How did the Potency turn out when `COc1ccc2nc(S(=O)Cc3ncc(C)c(OC)c3C)[nH]c2c1` (configuration not stated) was run?
**A.** inconclusive: 25.1 µM [inhibitor, single point]

**Q.** For `Cc1ccc(Cn2c(SCC(=O)NCC3CCCO3)nc3c(sc4ccccc43)c2=O)cc1` (configuration not stated), which Potency is on record?
**A.** inconclusive: 20 µM [inhibitor, partial curve]

**Q.** With `COCCn1c(=O)c(CCc2ccccc2)nc2cnc(OCc3ccccc3)nc21` as the compound, how does the “activity change, negative = inhibition” value read?
**A.** inactive: -8.27%

**Q.** With `Cc1ccc(-c2cc(-c3ccc4c(c3)OCO4)c(C#N)c(N)n2)o1` as the compound, how does the Potency read?
**A.** inconclusive: 12.6 µM [inhibitor, partial curve]

**Q.** For `O=C1c2ccccc2-c2onc3ccc(NCCCn4ccnc4)c1c23`, which “activity change, negative = inhibition” value is on record?
**A.** inactive: 21.8%

**Q.** Which “activity change, negative = inhibition” value does the source give for `CCOC(=O)C1=C(N)Oc2ccc(Br)cc2[C@@H]1[C@@H](C#N)C(=O)OCC` here?
**A.** inactive: 4.79%

**Q.** With `Cc1cc(F)c(Nc2ncnc3cc(OCc4ccccc4)ccc23)cc1O` as the compound, how does the activity change, negative = inhibition read?
**A.** inactive: 8.21% [at 0.0915 µM]

**Q.** With `S=c1[nH]nc(-c2cc(-c3ccco3)[nH]n2)n1-c1cccc2ccccc12` as the compound, how does the Potency read?
**A.** inconclusive: 6.31 µM [inhibitor, partial curve]

**Q.** `COc1ccc2cc(C#N)c(SCC(=O)NNC(=O)Cc3ccccc3)nc2c1` was tested. Which Potency did it give?
**A.** inconclusive: 31.6 µM [inhibitor, single point]

**Q.** How did the Potency turn out when `CCOC(=O)c1c(-c2ccc(C)cc2)cn2ccccc12` was run?
**A.** inconclusive: 0.158 µM [inhibitor, single point]

**Q.** How did the Potency turn out when `Cn1c(N)c(C(=O)COC(=O)c2cc(-c3ccco3)nc3ccccc23)c(=O)n(C)c1=O` was run?
**A.** inconclusive: 12.6 µM [inhibitor, partial curve]

**Q.** How did the “activity change, negative = inhibition” value turn out when `CCOc1ccc2nc(C)cc(C(=O)O)c2c1` was run?
**A.** inactive: -2.88%

**Q.** With `CCc1cc[n+](-c2nc3ccccc3nc2C(=C=[N-])C#N)cc1` as the compound, how does the Potency read?
**A.** inconclusive: 0.251 µM [inhibitor, full curve, poor fit]

**Q.** How did the Potency turn out when `CCCCn1c(NC(=O)c2ccc(Br)o2)c(S(=O)(=O)c2ccccc2)c2nc3ccccc3nc21` was run?
**A.** inconclusive: 15.8 µM [inhibitor, partial curve]

**Q.** For `O=C(Nc1cnn(C23CC4CC(CC(C4)C2)C3)c1)c1cnn2c(C(F)(F)F)cc(-c3ccco3)nc12`, which Potency is on record?
**A.** inconclusive: 25.1 µM [inhibitor, single point]

**Q.** Which Potency does the source give for `CC(C)(C)c1ccc(-c2csc(NNC3=NCCCCC3)n2)cc1` here?
**A.** inconclusive: 25.1 µM [inhibitor, single point]

**Q.** `O=C(O)c1cc([N+](=O)[O-])ccc1NCCCc1ccccc1` was tested. Which Potency did it give?
**A.** inconclusive: 31.6 µM [inhibitor, partial curve] and inconclusive: 17.8 µM [inhibitor, partial curve]

**Q.** For `Cc1[nH]c(=S)c(C#N)c(C)c1C(=O)Nc1ccccc1`, which Potency is on record?
**A.** inconclusive: 31.6 µM [inhibitor, single point]

**Q.** Which “activity change, negative = inhibition” value does the source give for `COC(=O)CCC(=O)Nc1sc(C)c(C)c1C(N)=O` here?
**A.** inactive: -8.56%

**Q.** Which “activity change, negative = inhibition” value does the source give for `CCOC(=O)c1sc2nc(C3CC3)cc(-c3ccc(F)cc3)c2c1N` here?
**A.** inactive: 18.4%

**Q.** How did the Potency turn out when `O=C(Nc1ccc2c(c1)OCO2)c1c(F)c(F)c(F)c(F)c1F` was run?
**A.** inconclusive: 15.8 µM [inhibitor, partial curve]

**Q.** How did the Potency turn out when `CC(C)(C)C(=O)Nc1nnc(SCC(=O)NCc2cccs2)s1` was run?
**A.** inconclusive: 0.158 µM [inhibitor, full curve, poor fit]

**Q.** Which “activity change, negative = inhibition” value does the source give for `C=CCNC(=O)c1onc(CSc2ccccc2)c1C(=O)O` here?
**A.** inactive: 1.82%

**Q.** How did the “activity change, negative = inhibition” value turn out when `O=c1c2ccccc2c2ccccc2c(=O)n1Cc1ccco1` was run?
**A.** inactive: -6.5%

**Q.** `CCN(CC)c1nc(=S)nc(NC(C)(C)C)[nH]1` was tested. Which Potency did it give?
**A.** inconclusive: 25.1 µM [inhibitor, partial curve]

**Q.** Which Potency does the source give for `Cc1ccc2nc(/C(C#N)=C\c3ccc([N+](=O)[O-])o3)[nH]c2c1` here?
**A.** inconclusive: 31.6 µM [inhibitor, single point]

**Q.** Which “activity change, negative = inhibition” value does the source give for `O=c1c(-c2cccc(F)c2)nc2cncnc2n1Cc1ccccc1` here?
**A.** inactive: 2.28%

**Q.** `COCC(=O)Oc1c(S(=O)(=O)c2ccc(C)cc2)c(C)nn1-c1ccccc1` was tested. Which Potency did it give?
**A.** inconclusive: 0.199 µM [inhibitor, full curve]

**Q.** How did the activity change, negative = inhibition turn out when `O=C(O)/C(=C\c1ccccc1)Cc1ccccc1` was run?
**A.** inactive: 0.619% [at 11.4 µM]

**Q.** How did the Potency turn out when `Cc1ccc2c(c1)-c1c(ssc1=S)C(C)(C)N2C(=O)CN1C(=O)c2ccccc2C1=O` was run?
**A.** inconclusive: 25.1 µM [inhibitor, partial curve]

**Q.** For `Cc1ccccc1N/N=C/c1ccc(N2CCOCC2)cc1`, which Potency is on record?
**A.** inconclusive: 0.251 µM [inhibitor, full curve]

**Q.** How did the “activity change, negative = inhibition” value turn out when `Cc1noc(C)c1COC(=O)CCCOc1ccc(Cl)cc1Cl` was run?
**A.** inactive: 8.78%

**Q.** With `Cn1cnnc1SCc1ccc(-c2ccc(Br)cc2)o1` as the compound, how does the Potency read?
**A.** inconclusive: 2.51 µM [inhibitor, full curve]

**Q.** Which Potency does the source give for `CCOC(=O)C(C(C)=O)c1c(Br)c(O)c(O)c2c(C(=O)c3ccc(C)cc3)coc12` (configuration not stated) here?
**A.** inconclusive: 3.98 µM [inhibitor, partial curve]

**Q.** How did the Potency turn out when `CS(=O)(=O)Nc1cccc(-c2cncnc2NCc2ccccc2)c1` was run?
**A.** inconclusive: 31.6 µM [inhibitor, partial curve]

**Q.** How did the Potency turn out when `COc1ccc(/C(C)=C2/SC(=S)N(CCC(=O)O)C2=O)cc1` was run?
**A.** inconclusive: 25.1 µM [inhibitor, single point]

**Q.** With `O=C1CCCCCN1Cc1ccccc1` as the compound, how does the “activity change, negative = inhibition” value read?
**A.** inactive: -7.38%

**Q.** `Cn1c(SCC(=O)N2CCOCC2)nc2cccnc21` was tested. Which “activity change, negative = inhibition” value did it give?
**A.** inactive: -5.85%

**Q.** `COc1cc2c(cc1OC)-c1cc3nc4ccccc4nc3n1C(C)(C)C2` was tested. Which Potency did it give?
**A.** active: 25.1 µM

**Q.** Which “activity change, negative = inhibition” value does the source give for `O=C(/C=C/c1ccc(F)cc1)NCCC1=CCCCC1` here?
**A.** inactive: -5.18%

**Q.** With `COc1ccc2c(Cl)c(C(=O)N/N=C/c3ccc4c(c3)OCO4)sc2c1` as the compound, how does the Potency read?
**A.** inconclusive: 20 µM [inhibitor, single point]

**Q.** How did the “activity change, negative = inhibition” value turn out when `Cc1ccc(CN2C(=O)C(C)(C)Oc3ccc(C(=O)N4CCCCC4)cc32)cc1` was run?
**A.** inactive: -10%

**Q.** For `COc1cc(/C=N/NC(N)=S)ccc1OCC(=O)Nc1ccc(C)c(C)c1`, which Potency is on record?
**A.** inconclusive: 39.8 µM [inhibitor, single point]

**Q.** `Cc1c(Cl)ccc2c1NC(=O)C21NC(CCC(N)=O)[C@H]2C(=O)N(c3ccc(Cl)cc3)C(=O)[C@H]21` (some centres not stated) was tested. Which Potency did it give?
**A.** inconclusive: 31.6 µM [inhibitor, single point]

**Q.** Which Potency does the source give for `CC(=O)/C(=N/Nc1cccc(Cl)c1)N1CCOCC1` here?
**A.** inconclusive: 7.94 µM [inhibitor, partial curve]

**Q.** With `CC1CC(C)(C)N2C(=O)C3(Nc4ccccc4S3)c3cccc1c32` (configuration not stated) as the compound, how does the Potency read?
**A.** inconclusive: 15.8 µM [inhibitor, partial curve]

**Q.** With `FC(F)(F)c1cccc(Cl)c1` as the compound, how does the “activity change, negative = inhibition” value read?
**A.** inactive: -5.56%

**Q.** For `O=C(O)CSc1ncccc1[N+](=O)[O-]`, which activity change, negative = inhibition is on record?
**A.** inactive: -6.61% [at 11.4 µM]

**Q.** Which Potency does the source give for `CCOc1ccc(NC(=O)c2ccc(CNc3c(NC4CCCCC4)c(=O)c3=O)cc2)cc1` here?
**A.** inconclusive: 31.6 µM [inhibitor, single point]

**Q.** How did the “activity change, negative = inhibition” value turn out when `CC(C)(C)c1cc(Cc2ccccc2)[nH]n1` was run?
**A.** inactive: 39.4%

**Q.** How did the Potency turn out when `CN(C)c1ccc(NC(=O)Nc2ccc3snnc3c2)cc1` was run?
**A.** inconclusive: 20 µM [inhibitor, single point]

**Q.** `CC(/C=C1\SC(=S)N(NC(=O)c2ccc(C)cc2)C1=O)=C\c1ccccc1` was tested. Which Potency did it give?
**A.** inconclusive: 25.1 µM [inhibitor, single point]

**Q.** With `CC(=O)c1ccc(NC(=O)c2noc3c2CCCCC3)cc1` as the compound, how does the “activity change, negative = inhibition” value read?
**A.** inactive: -1.42%

**Q.** How did the Potency turn out when `NC(=O)c1c(N)sc2c1CCCCC2` was run?
**A.** inconclusive: 31.6 µM [inhibitor, partial curve]

**Q.** Which “activity change, negative = inhibition” value does the source give for `Cc1ccc(-c2nnc(CSc3nc4cc5c(cc4cc3C)OCO5)o2)cc1` here?
**A.** inactive: 5.39%

**Q.** `O=C(CSc1ncn(-c2ccccc2)n1)c1cccs1` was tested. Which Potency did it give?
**A.** inconclusive: 39.8 µM [inhibitor, single point]

**Q.** `COc1cc2c(cc1OC)-c1c(oc3cc(O)cc(O)c3c1=O)CO2` was tested. Which Potency did it give?
**A.** inconclusive: 25.1 µM [inhibitor, single point]

**Q.** How did the Potency turn out when `CCC(C)(C)NC(=O)C(c1ccc(C)o1)N(Cc1cccs1)C(=O)Cn1nnc2ccccc21` (configuration not stated) was run?
**A.** inconclusive: 39.8 µM [inhibitor, single point]

**Q.** `O=C(Nc1nc(-c2ccco2)c(-c2ccco2)s1)C1CC(=O)N(c2ccc3c(c2)OCCO3)C1` (configuration not stated) was tested. Which Potency did it give?
**A.** inconclusive: 39.8 µM [inhibitor, single point]

**Q.** How did the “activity change, negative = inhibition” value turn out when `CC(=O)c1c[nH]c2ccc(C)cc2c1=O` was run?
**A.** inactive: 2.49%

**Q.** How did the Potency turn out when `O=C(Nc1cc(N2CCOCC2)ncn1)NC1(C(F)(F)F)Oc2ccc(Cl)cc2O1` (configuration not stated) was run?
**A.** inconclusive: 12.6 µM [inhibitor, single point]
